From PubChem BioAssay AID1508623 (National Center for Advancing Translational Sciences (NCATS), 2021)
Among all 48,000 compounds or so, about 450 (0.94%) were called active. Another 19% or so got no clear call; they are omitted. The call rests on the fitted dose curve; in most records, active means well fitted inhibition curve with a large enough effect; inconclusive means small, poorly fitted or top-dose-only effect; inactive means no such curve, though single readings can be large or run the other way. Some of the results follow.

test: Primary qHTS for Identification of Small Molecule Inhibitors of Huntingtin Promoter Activity; settings: HEK293 HTT promoter firefly luciferase reporter (activity 0% = vehicle and -100% = no light), 24 h; series mostly up to 57.5 µM; activity change, negative = inhibition: at the top concentration; further: nearly all actives have a fitted effect of over 50% in size
Summary of the method: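 HEK293 Fluc reporter, 2,500 cells/well, 24 h pre-culture; cpds up to 57.5 uM final, 24 h 37 degrees C; Dual-Glo, 10 min RT; normalized vehicle = 0%, zero RLU = -100%.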

Row | Structure (SMILES) | activity change, negative = inhibition
1 | Cc1ccc(C(=O)NCC(=O)OCc2cc(=O)n3ccsc3n2)cc1 | inactive: -0.487%
2 | CCc1ccc(NC(=O)CSc2ccc3nc(-c4ccc(OC)cc4)cn3n2)cc1 | inactive: 9.46%
3 | COC(=O)CSc1nc2sc3c(c2c(=O)n1-c1ccc(C)cc1)CC(C(C)C)OC3 (stereo unspecified) | inactive: -2.23%
4 | CCN(CC)S(=O)(=O)c1ccc2c(c1)N(CC(=O)Nc1ccc(OC)cc1)C(=O)CS2 | inactive: -19.9%
5 | CCOc1ccc(NC(=O)C2CCCN(c3cnccn3)C2)cc1 (stereo unspecified) | inactive: 12.2%
6 | CCOc1ccc(Cl)cc1CNCCCSc1nnnn1C | inactive: -1.9%
7 | CCCCCOC(=O)Nc1nc(=O)n([C@@H]2O[C@H](C)[C@@H](O)[C@H]2O)cc1F | inactive: 2.49%
8 | Cc1ccc(CN(C(=O)COc2ccccc2[N+](=O)[O-])c2ccccn2)cc1 | inactive: -17.6%
9 | CCCN(CCC)CCNC(=O)CN1C(=O)COc2ccc(S(=O)(=O)N3CCOCC3)cc21 | inactive: -12.2%
10 | CCC(CC)C(=O)Nc1nnc(S(=O)(=O)N2CCc3ccccc32)s1 | inactive: -10%
11 | Cc1cccc(OCC(=O)NCCc2nc3ccccc3[nH]2)c1C | inactive: -2.25%
12 | O=C(NCc1ccccc1Cl)C1CCN(C(=O)N2CCOc3ccccc32)CC1 | inactive: -4.39%
13 | CCOc1ccc(-n2nc(CO)c(C(=O)NCc3ccccn3)n2)cc1 | inactive: -15%
14 | COc1ccc(C2=NN(S(C)(=O)=O)C(c3cn(-c4ccccc4)nc3-c3cccs3)C2)cc1 (stereo unspecified) | inactive: -6.94%
15 | C#CCN1C(=O)C(O)(CC(=O)c2ccc(OC)c(OC)c2)c2cc(Br)ccc21 (stereo unspecified) | inactive: -18.2%
16 | COc1ccc(C(=O)NCC(c2ccc3c(c2)OCO3)N2CCOCC2)cc1 (stereo unspecified) | inactive: -21%
17 | Cc1oc2ncnc(N3CCOCC3)c2c1C(=O)N1CCN(c2cccc(C(F)(F)F)c2)CC1 | inactive: -9.41%
18 | CCCn1c(=N)c(C(=O)NCc2cccnc2)cc2c(=O)n3cccc(C)c3nc21 | inactive: -1.01%
19 | COc1cccc(-c2ccnc3c(-c4ccc(F)cc4)c(C)nn23)c1 | inactive: 8.99%
20 | Cc1ccc(Oc2nc3c(c(=O)n(Cc4ccccc4)c(=O)n3C)n2C)cc1C | inactive: -14.6%
21 | CC1(C)CC(=O)c2cc(C(=O)Nc3ccc(Br)cc3)c(=O)[nH]c2C1 | inactive: 54.3%
22 | COc1ccc(NC(=O)C2=C(C)Nc3ncnn3C2c2ccc(C)o2)cc1 (stereo unspecified) | inactive: -5.9%
23 | CN(C)CCOC(c1ccc(Cl)cc1)c1ccccn1 (stereo unspecified) | inactive: 6.31%
24 | Cc1ccc(-c2nc3ccccn3c2Nc2ccc3c(c2)OCCO3)s1 | inactive: -22.4%
25 | COc1ccc(OCC(=O)N2CCN(C(=O)c3cc(OC)c(OC)c(OC)c3)CC2)cc1 | inactive: 0.257%
26 | CCOc1ccc(C2N3CC4(C(C)C)CN2CC(C(C)C)(C3)C4=O)cc1OC (stereo unspecified) | inactive: -13.1%

Row | Structure (SMILES) | activity change, negative = inhibition
27 | CCOc1ccccc1NC(=O)N(C)CCc1c(C)nn(CC)c1C | inactive: 0.509%
28 | Cc1ccc(COc2ccc3oc(-c4ccccc4)c(C(=O)O)c3c2)cc1 | inactive: -5.22%
29 | COc1ccc(-n2nc(C(=O)Nc3ccc(Br)cc3C)c3c4ccccc4n(C)c3c2=O)cc1 | inactive: -22.2%
30 | CCOc1ccc(C2C=C(c3cccc(OC)c3)Nc3nnnn32)cc1 (stereo unspecified) | inactive: -28%
31 | COc1ccc(C(=O)N2CC(=O)Nc3ccc(C)cc3C2c2ccccc2)cc1OC (stereo unspecified) | inactive: -19.2%
32 | O=C(COc1ccccc1)NCC(c1cccs1)S(=O)(=O)c1ccc(Cl)cc1 (stereo unspecified) | inactive: -31.5%
33 | COc1cccc(C(=O)Nc2ccc(-n3nncc3-c3ccc(Br)cc3)cc2)c1OC | inactive: -17.4%
34 | Cc1cc(C)n2c(Nc3ccccc3C)c(-c3cccs3)nc2n1 | inactive: -3.87%
35 | Cc1c(C2=CCN(S(=O)(=O)c3ccc(Br)cc3)CC2)c2ccccc2n1CC(=O)N1CCCC1 | inactive: -1.29%
36 | Cc1ccc(CNC(=O)CSc2c3c(nc4ccc(Cl)cc24)CCCC3)cc1 | inactive: -12.2%
37 | Cc1cccc(Nc2nc(C)nc(N)c2S(=O)(=O)c2ccccc2)c1 | inactive: -8.8%
38 | CCOc1ccc(NC(=O)CN(Cc2ccccc2)S(=O)(=O)c2ccc(Cl)cc2)cc1 | inactive: -43.5%
39 | COc1ccc2nc3oc(C(=O)Nc4cccc(C(F)(F)F)c4)cc3cc2c1 | inactive: -2.34%
40 | CCc1c(C)sc2c1CCN(C(=O)Nc1ccccc1C(=O)OC)C2c1ccc(F)cc1 (stereo unspecified) | inactive: -20.3%
41 | CCNC(=O)c1c(NC(=O)COc2ccc(F)cc2)sc2c1CCCC2 | inactive: -3.57%
42 | O=C(Nc1ccc(Br)cc1)N1CCC(CN2CCCC2)CC1 | inactive: -13%
43 | COc1ccc(NC(=O)CSc2c3c(nc4ccc(Cl)cc24)CCCC3)cc1Cl | inactive: -31.5%
44 | CCOc1ccc(C2C(C(=O)Nc3ccc(OC)cc3)=C(C)Nc3nc(SCc4ccc(Cl)cc4)nn32)cc1 (stereo unspecified) | inactive: -7.5%
45 | Cc1ccccc1NC(=O)CS(=O)(=O)c1cccc2nsnc12 | inactive: -18.7%
46 | Cc1c(Cl)cccc1NC(=O)c1ccc(NC(=O)N2CCSc3ncccc32)cc1 | inactive: -2.78%
47 | CCCc1ccc(OCC(=O)Nc2scc(-c3cccs3)c2C(=O)OC)cc1 | inactive: -19.6%
48 | NC(=O)NC1NC(=O)NC1=O (stereo unspecified) | inactive: 8.62%
49 | Cc1ccc(CNC(=O)c2sc3nc4n(c(=O)c3c2C)CCCC4)cc1 | inactive: 29.6%
50 | COc1cc(CNC(=O)CSCc2nc3cccnc3n2C2CCCCC2)cc(OC)c1OC | inactive: -0.796%
51 | CC(=O)Nc1ccc(OCCOCCOc2ccc(NC(C)=O)cc2)cc1 | inactive: -8.7%
52 | CCOc1cc(C#N)c(NC(=O)c2cccc(S(=O)(=O)N3CCOCC3)c2)cc1OCC | inactive: 1.43%

Row | Structure (SMILES) | activity change, negative = inhibition
53 | O=C(CCNS(=O)(=O)c1ccc2c(c1)CCCC(=O)N2)NCc1ccccc1Cl | inactive: -19.1%
54 | CCC(=O)N1CCc2cc(CNC(=O)Nc3ccccc3Cl)ccc21 | inactive: -10.3%
55 | COc1cccc(NC(=O)CN(C)S(=O)(=O)c2cccs2)c1 | inactive: 29.3%
56 | CC1CCN(C(=O)CSc2nc(-c3ccc(C(C)C)cc3)no2)CC1 | inactive: -10.1%
57 | CC(C(=O)NCc1ccccc1)N1Cc2ccccc2C1=O (stereo unspecified) | inactive: -12%
58 | O=C(Nc1ccc([N+](=O)[O-])cc1)Nc1ccc([N+](=O)[O-])cc1 | inactive: -2.99%
59 | CCCS(=O)(=O)N1CC(=O)N(c2ccccc2F)C(C)(C(=O)NC2CCCCCC2)C1 (stereo unspecified) | inactive: 0.259%
60 | COc1ccc(CCNC(=O)c2cc(C)nc3c2c(C)nn3-c2ccccc2)cc1OC | inactive: -16.3%
61 | Cn1c(CNC(=O)CSc2n[nH]c(-c3ccccc3)n2)nc2ccccc21 | inactive: 3.9%
62 | CC(C)(C)C1CCc2c(sc(NC(=O)Cn3nnc(-c4cccc(C(F)(F)F)c4)n3)c2C#N)C1 (stereo unspecified) | inactive: -18.8%
63 | CCCCCOC(=O)CSc1nc2sc3c(c2c(=O)n1Cc1ccccc1)CC(C)(C)OC3 | inactive: -11.6%
64 | CCCCc1nn2c(=O)cc(COC(=O)c3ccc(NC(=O)c4cccs4)cc3)nc2s1 | inactive: -23.1%
65 | CCN1CCSc2ccc(C(=O)NCc3cccc(F)c3)cc21 | inactive: -13.7%
66 | O=C(Cn1c(=O)n(-c2ccc(Cl)cc2)c(=O)c2c3c(sc21)CCC3)c1ccc(F)cc1 | inactive: 2.79%
67 | COc1ccccc1Cn1c(CNS(=O)(=O)c2ccc3c(c2)CCCC3)nc2cccnc21 | inactive: -19.7%
68 | COc1ccccc1N1CCN(C(=O)CSc2nc3ccccc3nc2Cc2ccc(F)cc2)CC1 | inactive: 1.31%
69 | Cc1csc2nc(COc3ccc(NC(=O)COc4ccccc4F)cc3)cc(=O)n12 | inactive: 7.35%
70 | CCC(=O)N1c2ccccc2CC1C(=O)NCCN1CCN(c2cccc(C)c2C)CC1 (stereo unspecified) | inactive: -14.6%
71 | Cc1ccc(-c2nc3ccccc3o2)cc1NC(=O)c1cccc2c(Cl)cccc12 | inactive: -6.44%
72 | Cc1cccc(Nc2nc(-c3ccccc3)c3cc(C)ccc3n2)c1 | inactive: -18.6%
73 | Cc1ccccc1NCc1cccn1-c1nnc(N2CCOCC2)s1 | inactive: -22.1%
74 | Cc1ccc(NC(=O)CSc2nnc3[nH]c(=O)cc(C)n23)cc1Cl | inactive: -2.74%
75 | Cc1sc2c(c1C)c(=O)n(-c1ccccc1)c(=O)n2CC(=O)c1ccc(Cl)cc1 | inactive: -16%
76 | COc1cccc(CNC(=O)CCc2nnc3n(CC(C)C)c(=O)c4ccccc4n23)c1 | inactive: -7.3%
77 | CC(C)CC(=O)N1CC(=O)Nc2ccc(F)cc2C1c1ccccc1 (stereo unspecified) | inactive: -8.32%
78 | CCC(Sc1nc2c(sc3ccccc32)c(=O)n1CCCC(=O)NC1CCCC1)C(=O)Nc1cccc(OC)c1 (stereo unspecified) | inactive: -24.8%

Row | Structure (SMILES) | activity change, negative = inhibition
79 | NCCCC(N)(C(=O)O)C(F)F (stereo unspecified) | inactive
80 | CC(C)OCCCn1c(SCC(=O)Nc2ccc(F)cc2)nc2c(sc3ccccc32)c1=O | inactive: -14.3%
81 | Cc1ccc(OCCSc2nc3ccc(NC(=O)c4ccc5c(c4)OCO5)cc3s2)cc1 | inactive: -2.91%
82 | O=C(Nc1ccc(F)cc1)C1CCN(c2nc3ccccc3n3cccc23)CC1 | inactive: -0.156%
83 | COc1ccc(NC(=O)c2cc3c(=O)n(C)c4ccccc4c3s2)cc1Cl | inactive: -4.99%
84 | CCOc1ccc(-c2cc3c(=O)n(CC(=O)NCc4ccc(OC)cc4)ccn3n2)cc1 | inactive: 82.1%
85 | CCCc1ccc(OC(=O)CSc2nnc(-c3cccs3)o2)cc1 | inactive: -4.8%
86 | CCS(=O)(=O)N1CCc2cc(C(=O)Nc3cccc(C)c3C)ccc21 | inactive: 23.6%
87 | CSc1ccc(CCNC(=O)CCn2c(=O)c3cccn3c3cccnc32)cc1 | inactive: -0.476%
88 | Cc1cccc(NC(=O)CSc2nnc(N)s2)c1 | inactive: 6.08%
89 | O=C(NC1(C(F)(F)F)NC(=O)N(CCc2ccccc2)C1=O)c1ccccc1Cl (stereo unspecified) | inactive: -7.18%
90 | Cc1nc(-n2nc(C)c(Cc3ccccc3Cl)c2C)sc1C(=O)N1CCC(C)CC1 | inactive: -0.881%
91 | O=C(CCn1cccn1)NCc1ccc(Cl)cc1 | inactive: -1.5%
92 | CCOC(=O)C(CC)Sc1ncnc2sc3c(c12)CCCC3 (stereo unspecified) | inactive: -20.2%
93 | Cc1cccc(-n2ncc(C(=O)N3CCc4ccccc4C3)c2C2CCN(C(=O)OC(C)(C)C)CC2)c1 | inactive: 0.16%
94 | Cc1nn2c(=O)cc(COC(=O)c3cccc(NC(=O)COc4ccc(C)c(C)c4)c3)nc2s1 | inactive: -4.49%
95 | Cc1c(-c2nsc(NC(=O)c3cccs3)n2)nnn1-c1ccc(Cl)cc1 | inactive: 22.3%
96 | N#Cc1c[nH]n2c(NC3CCCCC3)c(-c3ccccc3F)nc12 | inactive: -11.4%
97 | CCSc1ncc(Cl)c(C(=O)N(Cc2ccccc2Cl)C2CCS(=O)(=O)C2)n1 (stereo unspecified) | inactive: -9.89%
98 | O=C(C1CCN(S(=O)(=O)c2cccs2)CC1)N1CCN(c2cccc(Cl)c2)CC1 | inactive: -4.96%
99 | CSc1ncc2c(n1)-c1ccccc1N(Cc1ccc(F)cc1)S2(=O)=O | inactive: -17%
100 | COC(=O)c1nnn(CC(=O)Nc2cc(F)ccc2F)c1C(=O)OC | inactive: -1.78%
101 | CCC1Oc2ccc(C)cc2N(CC(=O)NCCc2ccccc2)C1=O (stereo unspecified) | inactive: -17.1%
